{"source": "PubChem BioAssay AID1508642", "about": "(National Center for Advancing Translational Sciences (NCATS), 2021)", "note": "The whole screen tested about 43,000 compounds, of which about 200 (0.47%) were called active. About 12% were inconclusive and are not listed. The call rests on the fitted dose curve; in most records, active means well fitted cell-killing curve with a large enough effect; inconclusive means small, poorly fitted or top-dose-only effect, or effect the other way; inactive means flat fitted curve, though single readings scatter. The list shows a part of the results. On the % scale 0 is the no-effect control and ±100 the full control effect.", "data": [{"test": "Cell viability qHTS assay in S16 Pmp22-F2sN cells; further: nearly all actives have a fitted effect of over 65% in size", "conditions": "S16 Pmp22-F2sN Schwann cells (luciferase reporters placed in the Pmp22 gene) viability, CellTiter-Glo, 24 h; series mostly up to 57.5 µM; activity change, negative = cytotoxicity: at the top concentration", "method_in_brief": "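Rat S16 Schwann reporter line, 24 h treatment with library compounds delivered at 23 nL per well. Cell viability by CellTiter-Glo luminescence.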", "values": [{"smiles": "COc1ccc(NC(=O)C2Cc3ccccc3N2C(=O)c2ccccc2)cc1OC", "note": "(stereo not drawn)", "activity change, negative = cytotoxicity": "inactive: 2.12%"}, {"smiles": "COc1ccc(CNC(=O)CSc2ncc(S(=O)(=O)c3ccc(Br)cc3)c(=O)[nH]2)cc1", "activity change, negative = cytotoxicity": "inactive: 1.6%"}, {"smiles": "COC(=O)c1cccc(Nc2nn3c(=O)c4cc5c(cc4nc3s2)OCO5)c1", "activity change, negative = cytotoxicity": "inactive: 0.826%"}, {"smiles": "COc1ccc(S(=O)(=O)NCC(c2ccc(N(C)C)cc2)N2CCOCC2)cc1", "note": "(stereo not drawn)", "activity change, negative = cytotoxicity": "inactive: -3.17%"}, {"smiles": "CCOc1ccc(CNC(=O)c2sc3ncnc(N(C)C4CCCCC4)c3c2C)cc1", "activity change, negative = cytotoxicity": "inactive: -7.87%"}, {"smiles": "NC(=O)c1ccccc1NC(=O)Cn1nc(Cc2cccnc2)c2ccccc2c1=O", "activity change, negative = cytotoxicity": "inactive: 1.33%"}, {"smiles": "CCNc1oc(-c2ccc(COc3ccc(Cl)cc3)o2)nc1C#N", "activity change, negative = cytotoxicity": "inactive: 2.78%"}, {"smiles": "CCCCOc1ccc(CNC(=O)Cc2ccc(NC(=O)N3CCSc4ncccc43)cc2)cc1", "activity change, negative = cytotoxicity": "inactive: -26%"}, {"smiles": "Cc1nn(-c2ccc(N3CCOCC3)nn2)c(C)c1CCC(=O)NCc1ccccc1F", "activity change, negative = cytotoxicity": "inactive: -14.5%"}, {"smiles": "O=C(OCc1cccc(C(F)(F)F)c1)c1ccc(-c2nnn(Cc3ccc(F)cc3)n2)cc1", "activity change, negative = cytotoxicity": "inactive: 2.82%"}, {"smiles": "Cc1nn(C(=O)c2ccccc2)c(C)c1S(=O)(=O)N1CCCCCC1", "activity change, negative = cytotoxicity": "inactive: 12.5%"}, {"smiles": "CCN(C(=O)c1cn(-c2ccc(OC)cc2)c(=O)c2ccccc12)c1cccc(Cl)c1", "activity change, negative = cytotoxicity": "inactive: -3.57%"}, {"smiles": "CCn1c(=N)c(C(=O)NC2CCCC2)cc2c(=O)n3ccccc3nc21", "activity change, negative = cytotoxicity": "inactive: 1.28%"}, {"smiles": "COc1ccc(C)cc1-n1c(-c2ccc(C)cc2)cc2c1CC(C)(C)CC2=O", "activity change, negative = cytotoxicity": "inactive: 0.792%"}, {"smiles": "O=C(Cn1c2ncccc2c(=O)n1-c1ccccc1)Nc1ccc(Cl)cc1C(F)(F)F", "activity change, negative = cytotoxicity": "inactive: -1.64%"}, {"smiles": "CCCCCn1cc2c(c1-c1ccc(Cl)cc1)c(=O)n(C)c(=O)n2C", "activity change, negative = cytotoxicity": "inactive: 4.18%"}, {"smiles": "COc1ccc2c(c1)C=C(C(=O)NCc1cc(Br)ccc1OC)CO2", "activity change, negative = cytotoxicity": "inactive: -16.3%"}, {"smiles": "Cc1cccc(C(=O)Nc2ccc3oc(-c4ccncc4)nc3c2)c1", "activity change, negative = cytotoxicity": "inactive: 17.8%"}, {"smiles": "COc1ccccc1NC(=O)c1sc2ncn(Cc3ccccc3Cl)c(=O)c2c1C", "activity change, negative = cytotoxicity": "inactive: 0.431%"}, {"smiles": "CCOC(=O)C1CCCN(S(=O)(=O)c2ccc3[nH]c(=O)oc3c2)C1", "note": "(stereo not drawn)", "activity change, negative = cytotoxicity": "inactive: -22.1%"}, {"smiles": "CCc1ccccc1NC(=O)c1sc(-n2nc(C)c(Cc3ccc4c(c3)OCO4)c2C)nc1C", "activity change, negative = cytotoxicity": "inactive: -0.648%"}, {"smiles": "CC(C)N1CCc2nc(SCC(=O)Nc3cccc(F)c3)[nH]c(=O)c2C1", "activity change, negative = cytotoxicity": "inactive: -29.8%"}, {"smiles": "COc1ccc(-c2nc3scc(CCNC(=O)c4cc(OC)cc(OC)c4)n3n2)cc1", "activity change, negative = cytotoxicity": "inactive: -0.896%"}, {"smiles": "CCC(C)Sc1c(C(C)C)cnc2c1c(=O)n(C)c(=O)n2C", "note": "(stereo not drawn)", "activity change, negative = cytotoxicity": "inactive: 0.0964%"}, {"smiles": "COc1ccc(-c2cc(C(F)(F)F)c(C#N)c(SCC(=O)Nc3ccccc3F)n2)cc1", "activity change, negative = cytotoxicity": "inactive: 4.73%"}, {"smiles": "COc1cccc(CN2C(=O)CN(C3CCCCC3)C(=O)C2c2ccc(OC)c(OC)c2)c1", "note": "(stereo not drawn)", "activity change, negative = cytotoxicity": "inactive: -1.26%"}, {"smiles": "COc1ccc2c(c1)c1c(c(=O)n(-c3ccccc3C)c(=O)n1CC(=O)N1CCCC1)n2C", "activity change, negative = cytotoxicity": "inactive: 6.99%"}, {"smiles": "COc1ccc(C2C=C(c3ccccc3)Nc3nc(NC(=O)/C=C/c4ccc(F)cc4)nn32)cc1", "note": "(stereo not drawn)", "activity change, negative = cytotoxicity": "inactive: 3.88%"}, {"smiles": "COc1ccccc1C(=O)Nc1ccc(OCc2cc(=O)n3ccc(C)cc3n2)cc1", "activity change, negative = cytotoxicity": "inactive: 2.63%"}, {"smiles": "COc1ccc(-n2c(/C=C/c3c(C)[nH]c4ccccc34)nc3ccccc3c2=O)cc1", "activity change, negative = cytotoxicity": "inactive: 11%"}, {"smiles": "COc1cccc(CNc2nccn(-c3ccc(OC)c(OC)c3)c2=O)c1", "activity change, negative = cytotoxicity": "inactive: 24%"}, {"smiles": "Cc1nn(C)c2c1c(-c1ccccc1)cc(=O)n2Cc1ccc(Cl)cc1", "activity change, negative = cytotoxicity": "inactive: -14.4%"}, {"smiles": "COc1ccc(Cn2ccc3nc(C)c(C(=O)N4CCN(c5ccccc5)CC4)cc3c2=O)cc1", "activity change, negative = cytotoxicity": "inactive: -12.3%"}, {"smiles": "COc1ccc(C(=O)c2oc3ccccc3c2NC(=O)c2ccc(F)cc2)cc1", "activity change, negative = cytotoxicity": "inactive: 3.11%"}, {"smiles": "CCOC(=O)c1ccc(NC(=O)c2cn(-c3ccccc3)nc2-c2ccc(Br)cc2)cc1", "activity change, negative = cytotoxicity": "inactive: 2.22%"}, {"smiles": "Cc1ccc(Nc2sc(C(=O)c3ccccc3)c(N)c2C(=O)NC(C)C)cc1", "activity change, negative = cytotoxicity": "inactive: -0.102%"}, {"smiles": "CCc1nonc1NC(=O)c1oc2cc(C)c(Cl)cc2c1C", "activity change, negative = cytotoxicity": "inactive: 3.48%"}, {"smiles": "COc1ccc(NC(=O)CSc2oc(-c3cccs3)nc2S(=O)(=O)c2ccc(Br)cc2)c(OC)c1", "activity change, negative = cytotoxicity": "inactive: 0.151%"}, {"smiles": "CCOc1ccc(C(=O)c2cn(Cc3ccccc3OC)c3cc4c(cc3c2=O)OCCO4)cc1", "activity change, negative = cytotoxicity": "inactive: 10.7%"}, {"smiles": "CCCCN(CC)CCNC(=O)c1cn(CCOC)c(=O)c2c1c1ccccc1n2C", "activity change, negative = cytotoxicity": "inactive: -26.8%"}, {"smiles": "CCC(=O)N1CCc2cc(S(=O)(=O)CCC(=O)Nc3ccc(Cl)c(C(F)(F)F)c3)ccc21", "activity change, negative = cytotoxicity": "inactive: -15.7%"}, {"smiles": "COc1ccccc1N1CCN(C(=O)c2sc3nc4n(c(=O)c3c2C)CCC4)CC1", "activity change, negative = cytotoxicity": "inactive: 3.65%"}, {"smiles": "CCOC(=O)c1ccc(NC(=O)CSc2ccc(-c3sc(C)nc3C)nn2)cc1", "activity change, negative = cytotoxicity": "inactive: 0.395%"}, {"smiles": "O=C(NC1CC(=O)N(c2cccc(F)c2)C1)c1ccc(S(=O)(=O)N2CCOCC2)cc1", "note": "(stereo not drawn)", "activity change, negative = cytotoxicity": "inactive: 10.9%"}, {"smiles": "Cc1ccc(NC(=O)Cn2c(=O)oc3ccccc32)cc1Cl", "activity change, negative = cytotoxicity": "inactive: 3.26%"}, {"smiles": "COc1ccccc1CN1COc2ccc3c(C)cc(=O)oc3c2C1", "activity change, negative = cytotoxicity": "inactive: 15%"}, {"smiles": "O=C(NCc1ccccc1Cl)C1CCC(CNS(=O)(=O)c2ccc(Cl)cc2)CC1", "note": "(stereo not drawn)", "activity change, negative = cytotoxicity": "inactive: 29.2%"}, {"smiles": "COc1cccc(NC(=O)N2CCC(n3c(C)nc4cccnc43)CC2)c1", "activity change, negative = cytotoxicity": "inactive: -1.98%"}]}]}
